Assay results as given in the supplement of paper PMC8728848.
Some of the results follow.

How the values were obtained:
Assay in all cases: glycan array binding signal (z-score within array); higher = stronger binding
Settings in all cases: glycan notation: IUPAC condensed, linker removed
[1] = biological target: Neu5Ac(a2-3)Gal(b1-4)[Fuc(a1-3)]GlcNAc(b1-3)Gal(b1-4)GlcNAc
Summary of the method: (§1)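 Arrays were curated from the Consortium for Functional Glycomics database, 3228 in total, and kept only where the protein sequence was available. Binding is expressed as a within-array Z-score. This score was averaged across arrays of the same protein sequence at different concentrations or buffers and across linkers, and negative values can be read as non-binding.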

[2] = biological target: Neu5Ac(a2-3)Gal(b1-4)[Fuc(a1-3)]GlcNAc(b1-3)Gal(b1-4)[Fuc(a1-3)]GlcNAc(b1-3)Gal(b1-4)[Fuc(a1-3)]GlcNAc
Summary of the method: as §1

[3] = biological target: Neu5Ac(a2-3)Gal(b1-4)[Fuc(a1-3)]GlcNAc(b1-3)GalNAc
Summary of the method: as §1

[4] = biological target: Neu5Ac(a2-3)Gal(b1-4)[Fuc(a1-3)]GlcNAc(b1-6)[Gal(b1-3)]GalNAc
Summary of the method: as §1

[5] = biological target: Neu5Ac(a2-3)Gal(b1-4)[Fuc(a1-3)]GlcNAc(b1-6)[Neu5Ac(a2-3)Gal(b1-3)]GalNAc
Summary of the method: as §1

[6] = biological target: Neu5Ac(a2-3)Gal(b1-4)[Fuc(a1-3)]GlcNAc6S
Summary of the method: as §1

[7] = biological target: Neu5Ac(a2-3)Gal6S(b1-4)GlcNAc
Summary of the method: as §1

[8] = biological target: Neu5Ac(a2-3)Gal6S(b1-4)[Fuc(a1-3)]GlcNAc
Summary of the method: as §1

Neu5Ac(a2-3)GalNAc = biological target: Neu5Ac(a2-3)GalNAc
Summary of the method: as §1

[9] = biological target: Neu5Ac(a2-3)GalNAc(b1-4)GlcNAc
Summary of the method: as §1

[10] = biological target: Neu5Ac(a2-3)[GalNAc(b1-4)]Gal(b1-4)Glc
Summary of the method: as §1

[11] = biological target: Neu5Ac(a2-3)[GalNAc(b1-4)]Gal(b1-4)GlcNAc
Summary of the method: as §1

[12] = biological target: Neu5Ac(a2-3)[GalNAc(b1-4)]Gal(b1-4)GlcNAc(b1-3)GalNAc
Summary of the method: as §1

[13] = biological target: Neu5Ac(a2-3)[Neu5Ac(a2-6)]GalNAc
Summary of the method: as §1

Neu5Ac(a2-6)Gal = biological target: Neu5Ac(a2-6)Gal
Summary of the method: as §1

[14] = biological target: Neu5Ac(a2-6)Gal(b1-3)GlcNAc(b1-3)[Gal(b1-4)GlcNAc(b1-6)]Gal(b1-4)Glc
Summary of the method: as §1

Neu5Ac(a2-6)Gal(b1-4)Glc = biological target: Neu5Ac(a2-6)Gal(b1-4)Glc
Summary of the method: as §1

[15] = biological target: Neu5Ac(a2-6)Gal(b1-4)GlcNAc
Summary of the method: as §1

[16] = biological target: Neu5Ac(a2-6)Gal(b1-4)GlcNAc(b1-2)Man
Summary of the method: as §1

[17] = biological target: Neu5Ac(a2-6)Gal(b1-4)GlcNAc(b1-2)Man(a1-3)Man(b1-4)GlcNAc(b1-4)GlcNAc
Summary of the method: as §1

[18] = biological target: Neu5Ac(a2-6)Gal(b1-4)GlcNAc(b1-2)Man(a1-3)[Gal(b1-4)GlcNAc(b1-2)Man(a1-6)]Man(b1-4)GlcNAc(b1-4)GlcNAc
Summary of the method: as §1

[19] = biological target: Neu5Ac(a2-6)Gal(b1-4)GlcNAc(b1-2)Man(a1-3)[GlcNAc(b1-4)][Neu5Ac(a2-6)Gal(b1-4)GlcNAc(b1-2)Man(a1-6)]Man(b1-4)GlcNAc(b1-4)GlcNAc
Summary of the method: as §1

[20] = biological target: Neu5Ac(a2-6)Gal(b1-4)GlcNAc(b1-2)Man(a1-3)[Man(a1-6)]Man(b1-4)GlcNAc(b1-4)GlcNAc
Summary of the method: as §1

B1: Pwp5 ND (Candida glabrata) (protein)
chain: MGSSHHHHHHSSGLVPRGSHMASANPVPLTNVCYFPEEYPRQAGFRAITAGLASTILQGSVDELLNYSGLSSLTTQQTTTTTPNFQLPTLPLPTNVYGLTVVPLYLLVQLQGYFVPPVSGQYTFSLENTNDAAIIFFGNPSAFPCGDLSAWPQASADDITVTDGTFPSRTLFLKAGVAYPMRISYYNSLGSGNLAVSFTDPGGTKRTNWNGYIWRYNSCSTCTYT
[1]
  glycan array binding signal (z-score): -0.099
[2]
  glycan array binding signal (z-score): -0.248
[3]
  glycan array binding signal (z-score): -0.138
[4]
  glycan array binding signal (z-score): 0.398
[5]
  glycan array binding signal (z-score): 0.547
[6]
  glycan array binding signal (z-score): 0.989
[7]
  glycan array binding signal (z-score): -0.565
[8]
  glycan array binding signal (z-score): -0.299
Neu5Ac(a2-3)GalNAc
  glycan array binding signal (z-score): -0.413
[9]
  glycan array binding signal (z-score): -0.168
[10]
  glycan array binding signal (z-score): 0.052
[11]
  glycan array binding signal (z-score): -0.415
[12]
  glycan array binding signal (z-score): -0.287
[13]
  glycan array binding signal (z-score): -0.536
Neu5Ac(a2-6)Gal
  glycan array binding signal (z-score): -0.576
[14]
  glycan array binding signal (z-score): -0.739
Neu5Ac(a2-6)Gal(b1-4)Glc
  glycan array binding signal (z-score): 0.116
[15]
  glycan array binding signal (z-score): -0.135
[16]
  glycan array binding signal (z-score): -0.023
[17]
  glycan array binding signal (z-score): 0.131
[18]
  glycan array binding signal (z-score): -0.204
[19]
  glycan array binding signal (z-score): -0.03
[20]
  glycan array binding signal (z-score): -0.067
